According to PubChem BioAssay AID1346428 (National Center for Advancing Translational Sciences (NCATS), 2018):
Screen size: about 48,000 compounds; about 1,200 (2.5%) were called active. About 2% were inconclusive and are not listed.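 Rule for the calls: active = activation of at least 60% and not above a set upper limit (about 1 call in 100 departs from these limits); inconclusive = activation of 40% to 60%, or above that upper limit; inactive = activation under 40%.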 This is one part of the list.

These compounds were tested against Probable G-protein coupled receptor 32 (Homo sapiens) (UniProt O75388) (assay: qHTS for Agonists of Human Resolvin D1 Receptor DRV1). Details: CHO-K1 GPR32 beta-arrestin PathHunter luminescence, 90 min; at 76.9 µM; hits give high values; zero percent set by DMSO-only wells.
How it was run: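 GPR32 activation in stably transfected CHO-K1 cells, detected as beta-arrestin recruitment by enzyme-fragment complementation. Compound exposure: 90 min, 37 °C.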
Note: 0% is about no effect.

Chain of UniProt O75388 (O75388 whole entry, looked up, the tested form may be a part): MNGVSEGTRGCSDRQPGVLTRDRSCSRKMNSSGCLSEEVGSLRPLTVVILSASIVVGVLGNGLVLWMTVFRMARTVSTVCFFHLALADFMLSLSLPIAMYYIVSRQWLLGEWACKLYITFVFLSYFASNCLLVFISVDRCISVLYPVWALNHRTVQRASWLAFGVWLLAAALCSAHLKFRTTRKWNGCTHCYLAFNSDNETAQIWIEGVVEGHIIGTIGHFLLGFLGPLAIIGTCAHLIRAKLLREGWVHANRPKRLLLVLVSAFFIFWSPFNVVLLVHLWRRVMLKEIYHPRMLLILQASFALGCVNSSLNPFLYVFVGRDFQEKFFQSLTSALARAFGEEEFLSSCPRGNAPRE

SMILES | activation
CC(=O)Nc1ccc(Nc2c(CCC(C)C)c(C)c(C#N)c3nc4ccccc4n23)cc1 | inactive: 18.8%
Cc1ccccc1C(=O)Nc1nnc(S(=O)(=O)N(C)c2ccc(Cl)cc2)s1 | inactive: 8.7%
CC(=O)N[C@@H](CC(C)C)C(=O)O | inactive: 0.723%
Cc1ccccc1Cn1c(=O)n(CCc2ccccc2)c(=O)c2sc3ccccc3c21 | inactive: -2.42%
COC(=O)c1sccc1S(=O)(=O)N(CC(=O)Nc1ccc(C)c(F)c1)c1ccc(C)c(C)c1 | inactive: -11%
Cc1ccc(CNc2ncccc2-c2nc(-c3ccc(Cl)cc3)no2)cc1 | inactive: -0.805%
O=C(CCCn1c(=O)c2sccc2n(Cc2ccc(Cl)cc2)c1=O)NCc1ccc2c(c1)OCO2 | inactive: -24.7%
COc1ccccc1N1CCN(S(=O)(=O)CCNC(=O)COc2ccccc2F)CC1 | inactive: -0.195%
CN1CCCC1CCOC(C)(c1ccccc1)c1ccc(Cl)cc1 (stereo not drawn) | inactive: -14%
COC(=O)c1sccc1S(=O)(=O)N1CCN(c2ccc(Cl)cc2)CC1 | inactive: -28.3%
Cc1scc(CN2CCN(c3ccc(F)cc3)CC2)c1C | inactive: -12.1%
COc1ccc(Br)cc1CNC(=O)CCc1cn(Cc2ccc(C)cc2)c2ccccc12 | inactive: -30.5%
CCOC(=O)c1ccccc1NC(=O)c1cc2c(s1)-c1ccccc1SC2 | inactive: -6.56%
CC1=C(c2ccc(Cl)cc2)S(=O)(=O)N=C1N1CCC(C(=O)NCCc2ccco2)CC1 | inactive: 19.2%
CC(C)c1ccc(NC(=O)CN2C(=O)CSc3ccc(S(=O)(=O)N4CCCC4)cc32)cc1 | inactive: -22.6%
Cc1ccc(-c2nc(S(=O)(=O)c3ccccc3)c(SCC(=O)NC3CCCCC3)o2)cc1 | inactive: -23.7%
CC(C)CC(NC(=O)C1CCCCC1)C(=O)Nc1cccc(C(F)(F)F)c1 (stereo not drawn) | inactive: -4.28%
COc1ccc(CCNC(=O)CCc2cn(Cc3ccc(F)cc3)c3ccccc23)cc1OC | inactive: -15.3%
Cc1ccc(Cl)cc1NC(=O)c1cc(CN2CCCC2)on1 | inactive: -9.09%
Cc1ccc(Cl)cc1N1CCN(C(=O)c2nn(C)c3c2CS(=O)(=O)c2ccccc2-3)CC1 | inactive: -1.5%
CCc1ccc(NC(=O)c2ccc(NS(=O)(=O)c3c(C)noc3C)cc2)cc1 | inactive: 33.8%

SMILES | activation
Cc1cccc(N2CCN(C(=O)c3cccn3-c3nnc(N4CCCCC4)s3)CC2)c1C | inactive: -3.7%
COc1ccc(-c2cc(C(F)(F)F)nc(SCCC(=O)Nc3cccc(OC)c3)n2)cc1 | inactive: -28.8%
CCc1cccc(C)c1NC(=O)c1cc(S(=O)(=O)N2CCCCCC2)cn1C | inactive: 11.8%
CCOC(=O)Cn1c(=O)oc2cc(S(=O)(=O)NC(C)c3ccccc3)ccc21 (stereo not drawn) | inactive: -3.52%
COC(=O)c1nc2n(n1)C(c1cc(OC)ccc1OC)C=C(c1ccc(Br)cc1)N2 (stereo not drawn) | inactive: -2.74%
CCc1ccc(CN(C(=O)Nc2cccc(Cl)c2)c2ccccn2)cc1 | inactive: 14.8%
O=C(c1ccccc1F)N1c2nc(-c3ccco3)nn2C2(CCCCC2)[C@@H]2CCCC[C@@H]21 | inactive: -48.1%
COc1ccc(Cl)cc1NC(=O)c1cnc(N2CCCCC2)c2ccccc12 | inactive: -11.4%
Cc1c(Cl)cccc1NS(=O)(=O)c1ccc(NS(=O)(=O)c2ccc3c(c2)OCCO3)cc1 | active: 68.2%
COc1ccccc1CNC(=O)c1ccc(-n2c(C)cc3c2CCCC3)cc1 | inactive: -9.16%
CCOC(=O)c1ccccc1NC(=O)N1CC(C)Oc2ccc(C)cc21 (stereo not drawn) | inactive: -41.7%
CCOc1ccc(NC(=O)C2CCN(S(=O)(=O)c3c(C)noc3/C=C/c3ccco3)CC2)cc1 | inactive: -34.9%
CCCCOC(=O)/C(C#N)=C\c1ccc(-c2ccc(Cl)cc2)o1 | inactive: -5.28%
CCOc1ccc(NC(=O)CCn2cccn2)cc1 | inactive: -3.25%
O=C1CN(C(=O)COc2ccc(Cl)cc2)C(c2ccc(F)cc2)c2cc(Cl)ccc2N1 (stereo not drawn) | inactive: -14.1%
Cc1ccc(-c2nc3ccccn3c2Nc2ccc3c(c2)OCCO3)o1 | inactive: -3.45%
CCOC(=O)N1CCN(C(=O)c2ccc3c(c2)N(Cc2cccc(Cl)c2)C(=O)c2ccccc2S3=O)CC1 (stereo not drawn) | inactive: -7.35%
CC(=O)c1ccc(C(=O)N(Cc2cccnc2)c2nc3c(C)c(C)ccc3s2)cc1 | inactive: -21.4%
COc1cc(NC(=O)C(=O)Nc2ccc3nc4n(c(=O)c3c2)CCCCC4)cc(OC)c1OC | inactive: -9.81%
O=C(Nc1ccc(Br)cc1)C1CCN(c2ncccn2)CC1 | inactive: 1.5%
COC(=O)c1ccc(-c2nc(-c3ccc(OC)c(OC)c3)no2)cc1 | inactive: 1.27%

SMILES | activation
Cc1ccc(-c2nn(C)c(=O)c3ccccc23)cc1S(=O)(=O)NCCCN(C)C | inactive: -28.9%
CC(=O)Nc1ccc(NC(=O)C(c2ccccc2)N2Cc3ccccc3C2=O)cc1 (stereo not drawn) | inactive: -17.1%
CCc1ccc(C(=O)NC2=NC(c3cc(OC)ccc3OC)CC(=O)N2)cc1 (stereo not drawn) | inactive: -11.4%
COc1ccc(-c2cc(C(F)(F)F)n3nc(C(=O)Nc4sc5c(c4C(=O)OC(C)C)CCC(C)C5)cc3n2)cc1 (stereo not drawn) | inactive: -5.51%
CCCN(CCC)C(=O)C1CCCN(S(=O)(=O)c2cc(Br)cc3c2N(C(=O)CC)CC3)C1 (stereo not drawn) | inactive: -4%
O=C(Nc1ccc(-c2nc3cc(NC(=O)c4ccc(Cl)cc4)ccc3o2)cc1)c1ccc(Cl)cc1 | inactive: 15.1%
Cc1cc(C)cc(NC(=O)CCc2c(C)nc3c(c2C)c(=O)n(C)c(=O)n3C)c1 | inactive: -2.21%
O=C(c1ccc2c(c1)N(Cc1ccc(Cl)cc1)C(=O)c1ccccc1S2(=O)=O)N1CCN(Cc2ccccc2)CC1 | inactive: -18.6%
CCc1ccc(-n2nc(CO)c(C(=O)NCc3cccnc3)n2)cc1 | inactive: -2.03%
COc1ccc(N2C(=O)CCSC23C(=O)N(Cc2ccc(F)cc2)c2ccccc23)cc1 (stereo not drawn) | inactive: -32.2%
Cc1ccc(-c2onc(C)c2C)cc1S(=O)(=O)Nc1cccc(Cl)c1C | inactive: -8.03%
Cc1nc2ccc(S(=O)(=O)NC(C(=O)N3CCN(c4cccc(Cl)c4)CC3)C(C)C)cc2s1 (stereo not drawn) | inactive: -3.98%
O=S(=O)(c1ccc(Br)cc1)c1nnn2c1nc(NCCc1ccccc1)c1sccc12 | inactive: -5.24%
Cc1ccc(CCNC(=O)CCn2nc(-c3ccc(Cl)cc3)ccc2=O)cc1 | inactive: 31.9%
Cc1cn2c(=O)c(S(=O)(=O)Nc3ccc(N4CCOCC4)cc3)c(C)nc2s1 | inactive: -2.49%
Cc1nc(N2CCCC2)ncc1C(=O)NCc1ccc(F)cc1 | inactive: 0.566%
CC1CCN(S(=O)(=O)c2cc(C(=O)NCc3ccccc3)n(C)c2)CC1 | inactive: 7.27%
COc1cc2ncc3c(-c4ccccc4)nn(CC(=O)NC4CCCCC4)c3c2cc1OC | inactive: -3.35%
COCCNC(=O)c1cnn(-c2cccc(C)c2)c1-n1cccc1 | inactive: -10.9%
CCOCCCn1c(=N)c(C(=O)NC(C)c2ccccc2)cc2c(=O)n3cccc(C)c3nc21 (stereo not drawn) | inactive: -5.48%
CN(C(=O)c1ccc2c(c1)N(Cc1ccc(F)cc1)C(=O)c1ccccc1S2(=O)=O)C1CCCCC1 | inactive: -17%

SMILES | activation
CCC(CC)C(=O)Nc1nnc(S(=O)(=O)N2c3ccccc3CC2C)s1 (stereo not drawn) | inactive: 2.55%
COc1ccc(C2=C(C)C(N3CCN(c4ccc(OC)cc4)CC3)=NS2(=O)=O)cc1 | inactive: -8.67%
Fc1cccc(-c2nnn3c2nc(NCc2ccc4c(c2)OCO4)c2ccccc23)c1 | inactive: 2.75%
Cc1cc(N2CCC(C(=O)Nc3ccccc3Cl)CC2)n2nc(C)c(-c3ccc(Cl)cc3)c2n1 | inactive: 4.33%
COc1cccc(-c2nc(CS(=O)(=O)CC(=O)N3CCN(c4ccccc4)CC3)c(C)o2)c1 | inactive: -12.5%
Cc1ccc(Cl)cc1N1CCN(C(=O)c2ccc3c(Cl)c4c(nc3c2)CCCC4)CC1 | inactive: 12.4%
O=c1ccc(-c2ccccc2)nn1Cc1c(F)cccc1Cl | inactive: 20.9%
CCn1ccc2c(OCC(=O)Nc3ccc(OC)cc3OC)cccc2c1=O | inactive: 29.2%
COc1ccccc1CNC(=O)CCc1c(C)c2cc3c(C)coc3cc2oc1=O | inactive: -9.35%
CCN1CCN(CCCNC(=O)Cn2c(-c3cccs3)cc3cc(Cl)ccc32)CC1 | inactive: 11.4%
CCCCOc1ccc(CNC(=O)c2cnc3sc(N4CCCC4)nn3c2=O)cc1 | inactive: 7.55%
CC1CCCCN1c1cc2c(cc1F)c(=O)c(S(=O)(=O)c1ccccc1)cn2Cc1ccccc1 (stereo not drawn) | inactive: -10.7%
O=C(Cn1c(-c2cccs2)cc2cc(F)ccc21)NCCc1ccc(Cl)cc1 | inactive: 16.8%
O=S(=O)(Nc1ccc(O)c(Sc2nc3ccccc3s2)c1)c1cc(Cl)ccc1Cl | inactive: 13.4%
CCn1cc(C(=O)NCCC(C)C)c(=O)c2cc(S(=O)(=O)N(C)C3CCCCC3)ccc21 | inactive: -2.32%
CCC(=O)N1c2ccccc2CC1C(=O)NCCCN1CCN(c2ccc(OC)cc2)CC1 (stereo not drawn) | inactive: 11.2%
Cc1nc2c3cccnc3nn2c(C)c1CCC(=O)NCc1ccccc1 | inactive: -11.4%
CCN(CC)S(=O)(=O)c1ccc2c(c1)nc(CN(C)C(=O)Nc1ccc(C)c(Cl)c1)n2C | inactive: -13.8%
Cc1ccc(C)c(NC(=O)c2cc(S(=O)(=O)NCc3ccccc3)ccc2F)c1 | inactive: -4.09%
COc1ccccc1Nc1nc(C)nc(N)c1S(=O)(=O)c1ccccc1 | inactive: -9.1%
